Results taken from PMC9911399, “Two distinct binding modes provide the RNA-binding protein RbFox with extraordinary sequence specificity”.
Where a chain is given by its changes, count along the chain named. This is one part of the list.

T1: RBFOX1 RRM (Homo sapiens, UniProt Q9NWB1 109-208)
T1 sequence: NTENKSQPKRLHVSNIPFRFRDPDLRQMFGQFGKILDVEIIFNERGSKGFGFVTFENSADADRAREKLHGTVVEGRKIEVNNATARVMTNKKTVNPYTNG

B1: CCCAUUG (DNA:RNA)
RNA: GGGAGACCGGAAUUCAGAUUGUCCCCCAUUGUUAAAUCCCGUCGUAGCCACCA
DNA 1: CAATCTGAATTCCGGTCTCCC
DNA 2: TGGTGGCTACGACGGGATT
B2: CAGAAGA (DNA:RNA)
RNA: B1 RNA with C26A, C27G, U29A, U30G, G31A
DNA 1: CAATCTGAATTCCGGTCTCCC
DNA 2: TGGTGGCTACGACGGGATT
B3: AUGACCG (DNA:RNA)
RNA: B1 RNA with C25A, C26U, C27G, U29C, U30C
DNA 1: CAATCTGAATTCCGGTCTCCC
DNA 2: TGGTGGCTACGACGGGATT
B4: GUUCCCC (DNA:RNA)
RNA: GGGAGACCGGAAUUCAGAUUGUCCGUUCCCCUUAAAUCCCGUCGUAGCCACCA
DNA 1: CAATCTGAATTCCGGTCTCCC
DNA 2: TGGTGGCTACGACGGGATT
B5: AAAACAG (DNA:RNA)
RNA: B1 RNA with C25A, C26A, C27A, U29C, U30A
DNA 1: CAATCTGAATTCCGGTCTCCC
DNA 2: TGGTGGCTACGACGGGATT
B6: GGCCAAA (DNA:RNA)
RNA: B4 RNA with U26G, U27C, C29A, C30A, C31A
DNA 1: CAATCTGAATTCCGGTCTCCC
DNA 2: TGGTGGCTACGACGGGATT
B7: CAUUCCA (DNA:RNA)
RNA: B4 RNA with G25C, U26A, C28U, C31A
DNA 1: CAATCTGAATTCCGGTCTCCC
DNA 2: TGGTGGCTACGACGGGATT
B8: GCGGCCG (DNA:RNA)
RNA: B4 RNA with U26C, U27G, C28G, C31G
DNA 1: CAATCTGAATTCCGGTCTCCC
DNA 2: TGGTGGCTACGACGGGATT
B9: CUCGCGC (DNA:RNA)
RNA: B4 RNA with G25C, U27C, C28G, C30G
DNA 1: CAATCTGAATTCCGGTCTCCC
DNA 2: TGGTGGCTACGACGGGATT

Biological target: T1, RBFOX1 RRM
Assay: EMSA; HiTS-Eq, 1 nM pool, 10 min; buffer printed only for the single-RNA assays: 10 mM Tris pH 7.5, 150 mM NaCl, 3.4 mM EDTA, 0.001% NP-40, 30 C
Settings: tags: His6 N-terminal (pET28a); label: 5' 32P
Procedure, shortened: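 Purified RbFox RRM (wild type or mutant) was equilibrated for 10 min in 50 µL with 1 nM of a 5′-radiolabelled pool of RNA with 7 randomized nucleotides, its flanks annealed to DNA oligonucleotides, across increasing protein concentrations. Free RNA was separated by 8% native PAGE, excised, reverse-transcribed, PCR-barcoded and sequenced on an Illumina HiSeq 2500. Relative association constants came from read-count changes of each variant against the control reaction, normalised to the cognate motif.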

Row | Binder | binding signal
1 | B1 | 0.00626 KA relative to UGCAUGU
2 | B2 | 0.00599 KA relative to UGCAUGU
3 | B3 | 0.00982 KA relative to UGCAUGU
4 | B4 | 0.00516 KA relative to UGCAUGU
5 | B5 | 0.000298 KA relative to UGCAUGU
6 | B6 | 0.00186 KA relative to UGCAUGU
7 | B7 | 0.000288 KA relative to UGCAUGU
8 | B8 | 0.0202 KA relative to UGCAUGU
9 | B9 | 0.00969 KA relative to UGCAUGU
